{"source": "ChEMBL document CHEMBL4888484", "about": "“Replenishing the malaria drug discovery pipeline: Screening and hit evaluation of the MMV Hit Generation Library 1 (HGL1) against asexual blood stage Plasmodium falciparum ,using a nano luciferase reporter read-out” (2022)", "note": "The campaign covered roughly 150,000 compounds. About 540 (0.36%) showed an effect of 50% or more. This is one part of the list."}
{"test_system": "Plasmodium falciparum", "test": "Primary screen in NF54 nanoGlo assay, in single point, at 2uM, 72h; a lower Z score goes with more inhibition", "format": "functional, Erythrocyte", "conditions": "timepoint 72 hour", "units": {"% Inhibition": "%"}}
{"smiles": "CCCCNC(=O)N(C)C1CCC(CO)CC1", "note": "(centres undefined)", "% Inhibition": 2, "Z score": -0.38}
{"smiles": "COCCn1nnnc1[C@]1(N2CCCC2)CCN(C(=O)c2ccc(OC)cc2OC)C1", "% Inhibition": -3, "Z score": 0.39}
{"smiles": "COCCn1ccc(C(=O)N2CCc3cc(-c4ccccc4)ccc32)n1", "% Inhibition": -6, "Z score": 1.19}
{"smiles": "COC(=O)c1ccc(N[C@H]2CCCc3cc(OC(F)F)ccc32)nn1", "% Inhibition": -10, "Z score": 1.4}
{"smiles": "Cc1nonc1OCCn1cc(-c2ncc[nH]2)nn1", "% Inhibition": -9, "Z score": 1.17}
{"smiles": "COc1ccc(CCOc2nc(-c3cccc(C(F)(F)F)c3)n(-c3ccc(NC(=O)CC(C)C)cc3)n2)cc1", "% Inhibition": -10, "Z score": 1.85}
{"smiles": "Cc1nnc(-c2cccc(NC(=O)c3cnoc3-c3ccccc3C(F)(F)F)c2)o1", "% Inhibition": 5, "Z score": -0.55}
{"smiles": "O=C(Nc1ccccc1)C1CCN(c2nc(=O)c3cn[nH]c3[nH]2)CC1", "% Inhibition": -6, "Z score": 1}
{"smiles": "Cc1nc(-c2ncc(C(=O)N3[C@@H]4CC[C@H]3CN(C)C(=O)C4)c(O)n2)cs1", "% Inhibition": -7, "Z score": 0.71}
{"smiles": "Cc1cncn1C1CCN(S(=O)(=O)c2ccc(C(F)(F)F)cc2)CC1", "% Inhibition": -9, "Z score": 1.87}
{"smiles": "COc1cccc2c1[C@H](C(=O)NCCS(N)(=O)=O)CC2", "% Inhibition": -5, "Z score": 0.6}
{"smiles": "CCOC(=O)c1noc2ncnc(N[C@H]3CCCc4ccccc43)c12", "% Inhibition": -1, "Z score": 0.12}
{"smiles": "CCCOCC(=O)NC1c2ccccc2CCC1n1ccnc1", "note": "(centres undefined)", "% Inhibition": -5, "Z score": 0.71}
{"smiles": "O=C(c1cc2n(n1)CCCO2)N1CC2C3CCC(O3)C2C1", "note": "(centres undefined)", "% Inhibition": 7, "Z score": -1.05}
{"smiles": "COc1cccc(C(=O)Nc2nn(C)c3ncccc23)c1", "% Inhibition": -6, "Z score": 0.85}
{"smiles": "O=C(CCCn1cccn1)NCC[C@H]1CCOC1", "% Inhibition": -12, "Z score": 1.16}
{"smiles": "CC1(C)C(=O)NCCN1C(=O)c1cc(Cl)sc1Cl", "% Inhibition": 3, "Z score": -0.37}
{"smiles": "O=C(OCc1ccccc1)C(C(=O)OCc1ccccc1)n1c(=O)sc2ccccc21", "% Inhibition": 1, "Z score": -0.24}
{"smiles": "Cc1nn(-c2ccc(NC(=O)[C@@H]3CCCO3)cn2)c(C)c1Cl", "% Inhibition": -13, "Z score": 2.4}
{"smiles": "O=C1CCc2cc(NC(=O)NC3CCCCC3)ccc2N1", "% Inhibition": -6, "Z score": 1.07}
{"smiles": "CCc1c(C(=O)N2CC(C)N(C)CC2C)[nH]c(C)c1C(N)=O", "note": "(centres undefined)", "% Inhibition": 2, "Z score": -0.32}
{"smiles": "Cc1ccc([C@H](C)NC(=O)CCN2CCCCCCC2)cn1", "% Inhibition": -3, "Z score": 0.48}
{"smiles": "Cc1ccccc1OCC(=O)O[C@@H](C)C(=O)N1CCCc2ccccc21", "% Inhibition": -5, "Z score": 0.92}
{"smiles": "O=C(C[C@H]1CCC(=O)N(Cc2ccccc2)CC1)NC1CCN(Cc2ccccc2)CC1", "% Inhibition": 31, "Z score": -0.69}
{"smiles": "CCNc1cc(N2CCC[C@H](CCC(=O)N3CCN(C(=O)c4ccco4)CC3)C2)ncn1", "% Inhibition": -7, "Z score": 1.31}
{"smiles": "COCC(CCO)NC1C=Cc2ccccc2OC1", "note": "(centres undefined)", "% Inhibition": -1, "Z score": 0.25}
{"smiles": "CN(C)c1ccc([C@](O)(CC#N)C(F)(F)F)cc1", "% Inhibition": -5, "Z score": 0.9}
{"smiles": "Cc1ccc(C(=O)NC[C@@H](CO)C2CC2)c2c1CCC2", "% Inhibition": 5, "Z score": -0.93}
{"smiles": "COc1ccc(-c2cccc3c2CCN(C(=O)CC(C)C)[C@@H]3C)cc1", "% Inhibition": -13, "Z score": 1.63}
{"smiles": "Cc1ccc(CN2CCCN(C(=O)[C@@H]3Cc4ccccc4C(=O)O3)CC2)cc1", "% Inhibition": -11, "Z score": 2.11}
{"smiles": "COc1ccc(/C=C/CN2CC[C@](C)(O)[C@H](C)C2)cc1", "% Inhibition": -6, "Z score": 0.96}
{"smiles": "CC(C)C[C@H]1C(=O)NCCCN1C(=O)c1cn(C)cn1", "% Inhibition": 5, "Z score": -0.92}
{"smiles": "Cn1ncc(Cl)c1[C@@H]1CCCCCN1C(=O)c1cccs1", "% Inhibition": -10, "Z score": 0.9}
{"smiles": "COC(=O)c1cc(C)nc2onc(-c3ccc(F)cc3)c12", "% Inhibition": -22, "Z score": 2.62}
{"smiles": "O=C(NCc1c(F)cc(Br)cc1F)NCC(F)F", "% Inhibition": -1, "Z score": 0.16}
{"smiles": "COC(=O)C1CCN(C(=O)NC(C)CCc2cccn2C)CC1C", "note": "(centres undefined)", "% Inhibition": 5, "Z score": -0.69}
{"smiles": "CC1CCN(c2ncc3c(=O)n(CC(=O)Nc4ccc(Cl)cc4)cnc3n2)CC1", "% Inhibition": -10, "Z score": 1.11}
{"smiles": "O=C(NCCCc1ccccc1)c1nn(Cc2ccncc2)c2c1CN(C(=O)c1ccncc1)CC2", "% Inhibition": -1, "Z score": 0.17}
{"smiles": "O=C(O)c1cc2sccc2nc1C(F)(F)F", "% Inhibition": -18, "Z score": 2.03}
{"smiles": "CCN(C)C(=O)C(C)C(N)c1ccccc1", "note": "(centres undefined)", "% Inhibition": -7, "Z score": 1.02}
{"smiles": "Cc1cccc2c(N3CCC4(CCOCC4)CC3)ncnc12", "% Inhibition": -5, "Z score": 0.76}
{"smiles": "Cc1cccc(CN2C(=O)OC(c3ccc(NC(=O)c4cccs4)cc3)C2C(=O)NCC2CCCO2)c1", "note": "(centres undefined)", "% Inhibition": 2, "Z score": -0.24}
